{"source": "PubChem BioAssay AID596", "about": "(National Center for Advancing Translational Sciences (NCATS), 2007)", "note": "About 1,400 (2%) of roughly 71,000 compounds were called active. The inconclusive results got no clear call from the source; some entries with a clear call stand among them for comparison. Calls come from the whole dose curve; as a rule, active = well fitted curve in the direction sought with a large enough effect; inconclusive = small, poorly fitted or top-dose-only effect; inactive = no such curve, though single readings can be large or run the other way. Potencies of inconclusive entries are doubtful fits and often do not repeat. % is set by controls: 0 for no effect and ±100 for the full control effect; potency is the fitted concentration of half-maximal effect."}
{"molecular_target": "Microtubule-associated protein tau (Homo sapiens) (UniProt P10636)", "sequence (P10636 whole entry, looked up)": "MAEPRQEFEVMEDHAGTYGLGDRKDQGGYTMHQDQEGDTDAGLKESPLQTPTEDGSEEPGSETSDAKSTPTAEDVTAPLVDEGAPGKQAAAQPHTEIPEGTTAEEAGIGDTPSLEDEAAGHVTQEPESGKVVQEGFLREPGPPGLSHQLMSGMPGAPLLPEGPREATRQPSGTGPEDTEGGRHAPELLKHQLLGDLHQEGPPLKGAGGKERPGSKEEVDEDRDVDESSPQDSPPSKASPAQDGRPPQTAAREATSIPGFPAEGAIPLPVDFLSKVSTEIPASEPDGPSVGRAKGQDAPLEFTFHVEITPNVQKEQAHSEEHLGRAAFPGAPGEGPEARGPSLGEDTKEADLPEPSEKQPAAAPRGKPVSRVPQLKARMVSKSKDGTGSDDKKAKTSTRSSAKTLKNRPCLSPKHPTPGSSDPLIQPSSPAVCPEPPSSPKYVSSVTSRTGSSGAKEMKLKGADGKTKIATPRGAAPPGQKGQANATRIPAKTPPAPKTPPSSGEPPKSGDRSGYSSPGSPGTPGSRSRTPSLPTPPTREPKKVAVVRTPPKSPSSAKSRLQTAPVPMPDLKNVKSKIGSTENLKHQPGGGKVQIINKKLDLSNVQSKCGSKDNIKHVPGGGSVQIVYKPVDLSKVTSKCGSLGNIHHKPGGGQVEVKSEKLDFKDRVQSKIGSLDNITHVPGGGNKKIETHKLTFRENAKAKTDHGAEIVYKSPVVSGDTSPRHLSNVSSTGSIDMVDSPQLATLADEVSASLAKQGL", "experiment": "qHTS Assay for Tau Filament Binding;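 note: actives lower thioflavin S fluorescence by blocking filaments or displacing dye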", "conditions": "recombinant tau filaments, thioflavin S fluorescence, 15 h, filaments grown with octadecylsulfate alongside compound; series mostly up to 57.1 µM; activity change, negative = inhibition: at the top concentration", "summary_of_the_method": "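His-tagged recombinant human tau (exons 2, 3, 10; 1 uM final) fibrillized with 30 uM sodium octadecylsulfate, 15 h at 37 C, in pH 7.4 HEPES buffer with 10 uM thioflavine S and 5 mM DTT. Reduced ThS fluorescence (450/510 nm) marks activity.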"}
{"smiles": "COc1cccc(Cn2c(=O)c(-c3ccc(Cl)cc3)nc3cnc(N4CCNCC4)nc32)c1", "Potency": "active: 3.98 µM"}
{"smiles": "COc1cc2c(cc1OC)-c1c(OC)c(OC)cc3ccnc(c13)C2=O", "Potency": "active: 31.6 µM"}
{"smiles": "COc1ccc2[nH]c3c(c2c1)CN(C)CC3", "Potency": "active: 25.1 µM"}
{"smiles": "C[C@@H](CS(=O)(=O)Cc1ccccc1)C(N)=O", "activity change, negative = inhibition": "inactive: -4.3% [at 11.4 µM]"}
{"smiles": "CCOC(=O)Nc1ccc2c(c1)N(C(=O)N1CCN(C)CC1)c1ccccc1S2", "Potency": "active: 15.8 µM"}
{"smiles": "COc1ccc2c(C(=O)CN3CCN(CCO)CC3)c[nH]c2c1", "Potency": "inconclusive: 25.1 µM [decreasing]"}
{"smiles": "CC1(C)CCC2=C(O1)c1ccccc1C(=O)C2=O", "activity change, negative = inhibition": "inactive: -17.5%"}
{"smiles": "N#C/C(=C/c1ccc(N2CCCCCC2)o1)c1ccc(F)cc1", "Potency": "inconclusive: 31.6 µM [decreasing]"}
{"smiles": "Cn1c(-c2ccc3nc(N)sc3c2)nc2cc(N)ccc21", "Potency": "inconclusive: 25.1 µM [decreasing]"}
{"smiles": "CC(NC(=O)c1ccco1)C(c1cccs1)N1CCN(c2ccccc2)CC1", "note": "(stereo not drawn)", "Potency": "inconclusive: 15.8 µM [decreasing]"}
{"smiles": "N#CC(=C1SC=CS1)c1nc(-c2ccccc2)cs1", "Potency": "inconclusive: 10 µM [decreasing]"}
{"smiles": "COc1ccc2[nH]c(C(=O)c3ccccc3)cc2c1", "Potency": "inconclusive: 39.8 µM [decreasing]"}
{"smiles": "CCCCN1C(=O)C2C(c3ccc(OC)cc3O)NC(CC(C)C)(C(=O)O)C2C1=O", "note": "(stereo not drawn)", "Potency": "inconclusive: 39.8 µM [decreasing]"}
{"smiles": "Cc1onc(-c2ccccc2)c1C(N)=O", "activity change, negative = inhibition": "inactive: -2.9%"}
{"smiles": "c1ccc(OCc2nc(-c3ccccc3)no2)cc1", "activity change, negative = inhibition": "inactive: -2.3%"}
{"smiles": "COc1ccc(S(=O)(=O)Nc2ccc3c(c2)OCO3)cc1Cl", "Potency": "active: 20 µM"}
{"smiles": "NS(=O)(=O)c1ccc(N=Nc2c(O)c(C(=O)O)cc3ccccc23)cc1", "Potency": "inconclusive: 3.16 µM [decreasing]"}
{"smiles": "O=c1c(-c2ccccc2)nc2cnc(Oc3ccccc3)nc2n1Cc1cccs1", "Potency": "inconclusive: 39.8 µM [decreasing]"}
{"smiles": "O=C1CC(N(O)c2ccccc2)C(=O)N1c1cc(Cl)cc(Cl)c1", "note": "(stereo not drawn)", "Potency": "inconclusive: 31.6 µM [decreasing]"}
{"smiles": "O=C(Nc1ccccc1)C1=C(O)CC(c2ccco2)CC1=Nc1ccccc1", "note": "(stereo not drawn)", "Potency": "inconclusive: 31.6 µM [decreasing]"}
{"smiles": "O=C(c1cc(-c2ccco2)on1)N1CCc2ccccc2C1", "Potency": "inconclusive: 10 µM [decreasing]"}
{"smiles": "Cc1noc(COc2ccc(OCc3nc(C)no3)cc2)n1", "Potency": "active: 0.794 µM"}
{"smiles": "COc1ccccc1N1CCN(CCn2c(=O)[nH]c3c([nH]c4ccccc43)c2=O)CC1", "Potency": "active: 39.8 µM"}
